# Laboratory results reported in publication PMC4336329 (PLoS ONE, 2015).
# Out of some 310,000 compounds screened, about 2,200 (0.71%) showed an effect of 50% or more. The effect is printed as a negative number. The list shows a part of the results.
# Target: human ether-à-go-go-related gene (hERG) potassium channel (human, UniProt Q12809)
# Assay: primary screen, population patch clamp on CHO cells stably expressing hERG
# human ether-à-go-go-related gene (hERG) potassium channel, sequence (Q12809 whole entry, looked up): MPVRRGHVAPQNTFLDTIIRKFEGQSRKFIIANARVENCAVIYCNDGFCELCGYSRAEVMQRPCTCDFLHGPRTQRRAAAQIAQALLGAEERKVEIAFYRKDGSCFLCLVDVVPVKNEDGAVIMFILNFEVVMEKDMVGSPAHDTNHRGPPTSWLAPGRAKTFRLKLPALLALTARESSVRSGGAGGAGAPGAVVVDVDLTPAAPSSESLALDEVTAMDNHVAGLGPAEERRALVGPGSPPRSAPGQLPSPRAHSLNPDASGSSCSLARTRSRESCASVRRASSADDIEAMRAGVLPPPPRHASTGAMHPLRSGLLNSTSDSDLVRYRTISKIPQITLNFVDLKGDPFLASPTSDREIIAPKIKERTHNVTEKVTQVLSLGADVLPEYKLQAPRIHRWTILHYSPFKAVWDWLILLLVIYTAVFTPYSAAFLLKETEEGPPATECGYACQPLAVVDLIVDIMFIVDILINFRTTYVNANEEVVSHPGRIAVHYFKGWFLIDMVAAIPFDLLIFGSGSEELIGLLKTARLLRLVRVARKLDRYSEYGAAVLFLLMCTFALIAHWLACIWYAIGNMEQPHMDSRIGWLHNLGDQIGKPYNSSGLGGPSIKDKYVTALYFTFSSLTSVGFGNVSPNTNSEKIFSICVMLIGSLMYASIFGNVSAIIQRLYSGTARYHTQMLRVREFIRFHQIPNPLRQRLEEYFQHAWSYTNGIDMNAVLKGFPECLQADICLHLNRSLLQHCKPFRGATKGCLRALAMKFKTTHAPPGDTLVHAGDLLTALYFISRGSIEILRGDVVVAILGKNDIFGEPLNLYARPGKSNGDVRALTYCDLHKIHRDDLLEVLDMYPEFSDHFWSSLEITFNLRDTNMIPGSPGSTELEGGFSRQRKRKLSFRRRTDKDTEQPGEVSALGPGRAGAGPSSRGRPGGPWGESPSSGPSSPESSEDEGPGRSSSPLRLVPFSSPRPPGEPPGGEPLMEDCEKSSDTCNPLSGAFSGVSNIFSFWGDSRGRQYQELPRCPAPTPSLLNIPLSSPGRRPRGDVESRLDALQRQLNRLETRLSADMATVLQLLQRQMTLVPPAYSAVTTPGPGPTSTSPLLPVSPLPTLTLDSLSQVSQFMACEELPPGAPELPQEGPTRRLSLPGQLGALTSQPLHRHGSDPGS
row,SMILES,"hERG current change (%, negative = inhibition) at 1uM [%]"
1,Cc1onc(-c2c(Cl)cccc2Cl)c1C(=O)N1CCCc2ccccc21,9.33
2,CC(C)c1nnc2c(N(C)S(=O)(=O)c3ccccc3)nc3ccccc3n12,-2
3,CC(NC(=O)CCCOc1ccc(Cl)cc1)c1ccccc1 (stereo not drawn),4.38
4,O=C(O)CCCN1C(=O)/C(=C\c2ccc(-c3nc4ccccc4s3)o2)SC1=S,7.53
5,COc1cccc(CNC(=O)CSc2ccc(-c3ccncc3)nn2)c1,4.48
6,CN(CC(=O)NCC(=O)Nc1ccc(F)c(F)c1F)C1CCS(=O)(=O)C1 (stereo not drawn),5.72
7,CCCCCCCc1c(O)nc(SCC(=O)O)[nH]c1=O,12.5
8,COc1cccc(NC(=O)[C@@H]2CCCN2S(=O)(=O)c2cccc3cccnc23)c1,11
9,Cc1nnc(NC(=O)c2cccc(NC(=O)C(C)C)c2)s1,9.85
10,CCOC(=O)c1sc(N2C(=O)C(O)=C(C(=O)c3ccco3)C2c2ccc([N+](=O)[O-])cc2)nc1C (stereo not drawn),10.8
11,CCC(OC(=O)c1cccs1)C(=O)NCc1ccc(C)cc1 (stereo not drawn),15.6
12,Cc1ccc(CNC(=O)C2C3C=CC4(CN(Cc5cccnc5)C(=O)C24)O3)cc1 (stereo not drawn),8.86
13,Fc1ccccc1CSc1nncn1NCc1cccs1,13.3
14,Cc1ccc(C(=O)Nc2cc(Cl)ccc2-n2cncn2)s1,2.82
15,O=C(OCc1c(F)cccc1Cl)c1cccnc1Cl,9.98
16,CCOCc1c(C(=O)NC2CCCCCC2)oc2ccccc12,-1.11
17,Cc1cccc2c1NC(=O)C2=Nc1ccc(Cl)cc1,18.7
18,COc1ccc(NC(=S)N(CCc2nc3cc(C)c(C)cc3[nH]2)Cc2cccnc2)cc1,9.27
19,COc1ccccc1C(=O)N1CCCN(C(=O)c2ccccc2OC)CC1,16

row,SMILES,"hERG current change (%, negative = inhibition) at 1uM [%]"
1,Cn1cccc1/C=C1/SC(=S)N(CC(=O)O)C1=O,9.11
2,COc1ccc(C(=O)Nc2cccc(-c3ccc4nncn4n3)c2)cc1,7.11
3,COc1cc(NC(=O)CCN2CCN(C/C=C/c3ccccc3)CC2)cc(OC)c1,-36.8
4,CCN(CC)C(=O)C1CCN(Cc2cn(C)nc2-c2ccc(Oc3ccccc3)cc2)CC1,3.2
5,COc1ccc(-c2c[n+]3c(n2-c2ccccc2)CCCCC3)cc1.[Br-],2.74
6,COc1ccc(S(=O)(=O)Nc2c(C)n(C)n(-c3ccccc3)c2=O)c(Cl)c1Cl,-4.03
7,CC(=O)Nc1nc(C)nc(-c2ccccc2)c1C(C)=O,3.7
8,O=C(COC(=O)/C=C/c1ccc(Cl)cc1)NC(=O)NCc1ccccc1,5.01
9,N/C(=N\OC(=O)c1cccs1)c1cccnc1,16.9
10,COc1ccc(OC)c(N/C(C)=C/C(=O)c2ccccc2)c1,5.49
11,COc1ccccc1S(=O)Cc1ccc(C(=O)NC2CCCC2)o1 (stereo not drawn),5.17
12,COc1ccc(OCc2cc(C(=O)NC3CCOCC3)no2)c2ccccc12,11.8
13,O=C(CSc1nnc(SCc2cccc3ccccc23)s1)c1ccc2c(c1)OCO2,17.7
14,COc1ccc(NC(=O)C2CCN(S(=O)(=O)c3ccc(OC)c(OC)c3)CC2)c(OC)c1,-7.41
15,O=C(NC(=O)c1c(F)cccc1F)Nc1cc(Cl)c(F)c(Cl)c1F,14.8
16,C=CC(=C)CC(NC)c1ccccc1 (stereo not drawn),9.69
17,CCC1(C)N(O)C(C)(C)C(c2ccc(F)cc2)=[N+]1[O-] (stereo not drawn),6.41
18,Cc1cc(C)n(NC(=S)NC2CCCC2)c(=O)c1C#N,-0.0307
19,CC(C)(C)NC(=O)NC(=O)CSc1nncs1,8.5

row,SMILES,"hERG current change (%, negative = inhibition) at 1uM [%]"
1,CCCN(CC1CC1)C(=O)CSc1ncnc2sccc12,-13.9
2,CCc1cc(=O)oc2cc(C)cc(OC(C)C(=O)NCCCN3CCCC3=O)c12 (stereo not drawn),13.2
3,Cc1cc(C)n(CC(=O)N2CCCC(N3CCN(c4ccccc4C)CC3)C2)n1 (stereo not drawn),7.09
4,CC(C)(C)c1ccc(S(=O)(=O)NCc2ccc(C(=O)N3CCCC3)cc2)cc1,6.34
5,CCOC(=O)C(CCCCC(NC(C)=O)(C(=O)OCC)C(=O)OCC)(NC(C)=O)C(=O)OCC,10.8
6,Cc1sc(NC(=O)c2ccccc2)c(C(c2ccc(Cl)cc2)N2CCN(CCO)CC2)c1C (stereo not drawn),4.95
7,Cc1ccc(C)c(N2CCN(C(=O)CCC(=O)N3CCOc4ccc(Cl)cc43)CC2)c1,0.277
8,Cc1ccc(S(=O)(=O)N2CCOCC2)c(C)c1-n1cnnn1,6.02
9,CCOc1ccc(CCNC(=O)COC(=O)COc2ccccc2C)cc1OCC,19.9
10,COc1ccc(CCNCc2ccccc2)cc1.O=C(O)C(=O)O,-3.3
11,CCNC(=S)N1CCc2cc(OC)c(OC)cc2C1COc1ccccc1OC (stereo not drawn),1.26
12,COC(=O)c1c(NC(=O)CSc2nnnn2-c2ccc3c(c2)OCO3)sc(C)c1C,15.9
13,COc1ccc(Nc2nc3ccccc3nc2C)cc1,-1.84
14,Fc1ccc(NC(=S)N2CCCN(c3ccc(C(F)(F)F)cn3)CC2)c(F)c1,14
15,O=C(CC1C(=O)NCCN1CC1CCCCC1)NCc1cccc(F)c1F (stereo not drawn),9.88
16,CCOc1ccccc1NC(=O)CSc1nnc2ccc(-c3ccccn3)nn12,11
17,O=C(NC1CCCc2c1cnn2-c1ccc(F)cc1F)c1cnccn1 (stereo not drawn),-3.32
18,CCc1c(C)sc(NC(=O)c2cccs2)c1C(N)=O,11.1
19,CC(C)(C)n1nnnc1CN1CCN2CCCC2C1 (stereo not drawn),2.6
